Measured values reported in publication PMC5538626, “Structural and functional analysis of the GABARAP interaction motif (GIM)” (EMBO Reports, 2017).
Positions count from the first letter of the chain named. These are yes or no findings as the source states them, for the method shown. For part of these data: Binding seen in cells or lysates may run through a third protein. Some binding calls cover weakened binding; strength is not graded here. For part of these data: Tags and fused reporters may be left off the sequences shown.

By UniProt entry, the sequences of proteins in these tests, tags left out. Where a name states a change or a piece, a line headed by the entry shows the natural chain unless it says otherwise. Residues count along the entry.
UniProt Q8TDY2: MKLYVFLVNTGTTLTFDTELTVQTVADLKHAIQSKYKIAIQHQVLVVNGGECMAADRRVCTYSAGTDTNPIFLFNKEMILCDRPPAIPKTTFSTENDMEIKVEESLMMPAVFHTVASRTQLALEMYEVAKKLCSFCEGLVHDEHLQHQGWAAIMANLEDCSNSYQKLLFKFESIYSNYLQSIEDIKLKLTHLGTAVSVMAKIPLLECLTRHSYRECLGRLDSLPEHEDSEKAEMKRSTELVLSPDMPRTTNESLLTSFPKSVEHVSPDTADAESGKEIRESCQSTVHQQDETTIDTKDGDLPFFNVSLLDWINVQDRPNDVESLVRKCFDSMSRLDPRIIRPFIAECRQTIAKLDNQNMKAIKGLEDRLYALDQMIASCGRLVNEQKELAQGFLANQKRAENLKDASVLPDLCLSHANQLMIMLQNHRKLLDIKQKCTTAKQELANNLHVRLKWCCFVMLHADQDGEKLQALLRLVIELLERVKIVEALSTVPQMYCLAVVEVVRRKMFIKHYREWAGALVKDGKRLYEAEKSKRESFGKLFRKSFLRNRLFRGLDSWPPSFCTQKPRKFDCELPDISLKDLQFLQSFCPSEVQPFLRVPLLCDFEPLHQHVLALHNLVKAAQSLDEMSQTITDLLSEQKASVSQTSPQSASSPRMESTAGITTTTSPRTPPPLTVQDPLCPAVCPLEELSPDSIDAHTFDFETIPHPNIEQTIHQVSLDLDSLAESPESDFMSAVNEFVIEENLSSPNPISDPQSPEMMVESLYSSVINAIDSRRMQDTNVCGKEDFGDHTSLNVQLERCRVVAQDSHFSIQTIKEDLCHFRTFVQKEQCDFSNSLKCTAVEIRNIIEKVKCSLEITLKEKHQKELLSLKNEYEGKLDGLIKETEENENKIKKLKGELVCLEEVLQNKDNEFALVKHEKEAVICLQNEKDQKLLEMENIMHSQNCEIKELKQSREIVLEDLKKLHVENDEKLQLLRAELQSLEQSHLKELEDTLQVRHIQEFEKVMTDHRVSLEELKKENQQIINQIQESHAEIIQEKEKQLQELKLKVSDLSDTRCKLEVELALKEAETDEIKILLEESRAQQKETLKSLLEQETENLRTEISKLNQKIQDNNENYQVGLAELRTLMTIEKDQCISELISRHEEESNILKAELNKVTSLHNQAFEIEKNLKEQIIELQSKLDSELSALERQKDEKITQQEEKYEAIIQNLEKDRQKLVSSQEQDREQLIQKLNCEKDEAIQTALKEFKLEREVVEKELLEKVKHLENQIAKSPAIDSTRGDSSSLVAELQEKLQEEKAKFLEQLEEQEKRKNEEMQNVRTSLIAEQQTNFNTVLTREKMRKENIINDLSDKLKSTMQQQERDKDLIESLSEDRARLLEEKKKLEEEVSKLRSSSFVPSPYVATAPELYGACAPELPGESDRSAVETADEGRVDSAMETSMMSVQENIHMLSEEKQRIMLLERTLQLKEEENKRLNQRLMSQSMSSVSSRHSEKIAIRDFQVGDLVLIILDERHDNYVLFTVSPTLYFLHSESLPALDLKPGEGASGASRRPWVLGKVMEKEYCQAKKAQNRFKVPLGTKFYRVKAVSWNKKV
UniProt Q7TSI1: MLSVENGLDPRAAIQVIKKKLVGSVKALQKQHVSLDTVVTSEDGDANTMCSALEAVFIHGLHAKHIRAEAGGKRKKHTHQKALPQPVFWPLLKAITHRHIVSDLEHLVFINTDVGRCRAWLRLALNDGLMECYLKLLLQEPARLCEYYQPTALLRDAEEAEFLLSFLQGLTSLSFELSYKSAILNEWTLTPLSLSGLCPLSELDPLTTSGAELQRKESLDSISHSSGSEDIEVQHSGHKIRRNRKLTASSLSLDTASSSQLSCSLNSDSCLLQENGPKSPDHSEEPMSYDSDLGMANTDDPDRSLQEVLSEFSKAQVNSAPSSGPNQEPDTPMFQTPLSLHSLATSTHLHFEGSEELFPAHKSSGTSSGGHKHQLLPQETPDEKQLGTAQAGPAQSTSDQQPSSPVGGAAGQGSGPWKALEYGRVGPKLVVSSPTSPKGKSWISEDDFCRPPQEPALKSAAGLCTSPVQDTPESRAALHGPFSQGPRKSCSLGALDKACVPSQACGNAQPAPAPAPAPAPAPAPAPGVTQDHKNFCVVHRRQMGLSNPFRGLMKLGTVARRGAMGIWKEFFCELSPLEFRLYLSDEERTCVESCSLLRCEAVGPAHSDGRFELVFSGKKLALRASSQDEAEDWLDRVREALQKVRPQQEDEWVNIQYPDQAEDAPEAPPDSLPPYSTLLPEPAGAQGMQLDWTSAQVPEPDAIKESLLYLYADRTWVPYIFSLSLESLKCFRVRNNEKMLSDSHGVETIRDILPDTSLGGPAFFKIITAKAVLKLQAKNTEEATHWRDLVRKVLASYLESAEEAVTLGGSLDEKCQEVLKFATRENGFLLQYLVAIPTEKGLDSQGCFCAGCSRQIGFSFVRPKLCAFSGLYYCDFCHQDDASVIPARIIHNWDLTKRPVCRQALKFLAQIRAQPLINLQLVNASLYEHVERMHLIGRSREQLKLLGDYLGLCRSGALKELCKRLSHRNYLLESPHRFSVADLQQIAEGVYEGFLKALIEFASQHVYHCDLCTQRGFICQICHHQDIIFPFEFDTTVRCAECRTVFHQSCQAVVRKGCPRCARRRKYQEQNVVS
UniProt Q9BXW4, residues 1-126: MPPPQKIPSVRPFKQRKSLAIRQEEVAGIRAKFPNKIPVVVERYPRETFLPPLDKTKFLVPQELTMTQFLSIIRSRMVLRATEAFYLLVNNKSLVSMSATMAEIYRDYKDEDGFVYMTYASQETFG

What was measured:
[1] = target: PLEKHM1‐mutLIR peptide (…), biotinylated; experiment: ELISA; called peptide array: biotinylated peptides immobilised on streptavidin-coated 96-well plates; 1 μM His6-mATG8 in PBS, 0.1% Tween-20, 1% BSA, 1 h, 8°C; anti-His-HRP, TMB, absorbance at 450 nm; both purified
[2] = target: PLEKHM1‐LIR N637G peptide (biotinylated 9-mer) (UniProt Q9Y4G2); experiment: as above
[3] = target: PLEKHM1‐LIR N637P peptide (biotinylated 9-mer) (UniProt Q9Y4G2); experiment: as above
[4] = target: PLEKHM1‐LIR V636A peptide (biotinylated 9-mer) (UniProt Q9Y4G2); experiment: as above
[5] = target: PLEKHM1‐LIR V638A peptide (biotinylated 9-mer) (UniProt Q9Y4G2); experiment: as above
[6] = target: PLEKHM1‐LIR W635A peptide (biotinylated 9-mer) (UniProt Q9Y4G2); experiment: as above
[7] = target: T1, Biotinylated PLEKHM1-LIR V638I peptide (…); experiment: peptide or protein array; biotinylated peptides immobilised on streptavidin-coated 96-well plates, 1 uM His6-tagged mATG8 in PBS, 0.1% Tween-20, 1% BSA, 1 h at 8 C, detected with anti-His-HRP and TMB at 450 nm; expressed relative to the WT LIR peptide; both purified
T1 sequence (peptide, biotin (position not stated)): EDEWVNIQY

[8] = target: T2, Biotinylated PLEKHM1-LIR V638L peptide (…); experiment: as above
T2 sequence (peptide, biotin (position not stated)): EDEWVNLQY

[9] = target: 3xFlag‐FIP200 E703V/I705V (human) (UniProt Q8TDY2); experiment: co-IP; HEK293 cells overexpressing 3xFlag-FIP200 forms; anti-Flag beads; blot for endogenous GABARAP and LC3B
GFP‐FUNDC1 E19V = target: T3, GFP‐FUNDC1 E19V (UniProt Q8IVP5); experiment: co-IP; HEK293 cells overexpressing GFP-FUNDC1 forms, vehicle (DMSO) or 20 μM CCCP for 2 h; anti-GFP beads; blot for endogenous GABARAP and LC3B
T3 sequence: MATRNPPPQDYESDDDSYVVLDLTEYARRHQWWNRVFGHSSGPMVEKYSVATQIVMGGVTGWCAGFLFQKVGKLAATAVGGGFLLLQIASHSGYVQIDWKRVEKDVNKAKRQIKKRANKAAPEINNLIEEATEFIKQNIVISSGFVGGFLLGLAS

GFP‐FUNDC1 E19V/L21V = target: T4, GFP‐FUNDC1 E19V/L21V (UniProt Q8IVP5); experiment: as above
T4 sequence: T3 sequence with L21V

GFP‐FUNDC1 L21V = target: T5, GFP‐FUNDC1 L21V (UniProt Q8IVP5); experiment: as above
T5 sequence: T3 sequence with V19E, L21V

[10] = target: endogenous PLEKHM1 (mouse embryonic fibroblasts) (mouse (endogenous in MEFs)) (UniProt Q7TSI1); experiment: condition: only cells treated with vehicle (DMSO) only, without Ku + CQ; co-IP; as a9 but cells treated with vehicle (DMSO) only
[11] = target: endogenous PLEKHM1 (mouse embryonic fibroblasts) (mouse (endogenous in MEFs)) (UniProt Q7TSI1); experiment: co-IP; mouse embryonic fibroblasts, 4 h KU-0063794 (10 μM) plus chloroquine (20 μM); NP-40 lysis buffer; endogenous PLEKHM1 immunoprecipitated; blot for endogenous LC3B and GABARAP
GFP‐LC3C (human) [12] = target: GFP‐LC3C (human) (UniProt Q9BXW4); experiment: co-IP; HEK293T cells co-expressing GFP-mATG8 and PLEKHM1-WT-Flag; GFP-Trap beads; anti-Flag blot
GFP‐GABARAP‐L2 (human) = GFP‐GABARAP‐L2 (human) (UniProt P60520); experiment: co-IP; HeLa cells overexpressing GFP-mATG8, 4 h KU-0063794 (10 μM) plus chloroquine (20 μM); GFP-Trap beads; blot for endogenous proteins
GFP‐LC3A (human) = GFP‐LC3A (human) (UniProt Q9H492); experiment: as above
GFP‐LC3C (human) [13] = target: GFP‐LC3C (human) (UniProt Q9BXW4); experiment: as above

Question: How did the binding [1] turn out when “6xHis‐tagged LC3A (from UniProt Q9H492 1-121)” was run?
Answer: The binding was “no binding (tested: 1 μM)”.

Question: What does the source list for “6xHis‐tagged LC3C (from UniProt Q9BXW4 1-126)”?
Answer: binding [2]: no binding (tested: 1 μM); binding [3]: no binding (tested: 1 μM); binding [4]: no binding (tested: 1 μM); binding [5]: no binding (tested: 1 μM); binding [6]: no binding (tested: 1 μM); binding [1]: no binding (tested: 1 μM)

Question: For “6xHis‐tagged GABARAP‐L2 (from UniProt P60520 1-117)”, which binding [6] is on record?
Answer: The binding was “no binding (tested: 1 μM)”.

Question: What about the binding [1] of the same substance?
Answer: Its binding is “no binding (tested: 1 μM)”.

Question: With “6xHis-tagged GABARAP (from UniProt O95166 1-117)” as the substance, how does the binding [7] read?
Answer: The binding was “binds”.

Question: And the binding [8]?
Answer: Its binding is “binds”.

Question: Which binding [9] does the source give for “endogenous GABARAP (HEK293) (from UniProt O95166 1-117)” here?
Answer: Its binding is “binds”.

Question: And the binding (GFP‐FUNDC1 E19V)?
Answer: The binding was “binds”.

Question: And the binding (GFP‐FUNDC1 E19V/L21V)?
Answer: Its binding is “binds”.

Question: And the binding (GFP‐FUNDC1 L21V)?
Answer: The binding was “binds”.

Question: With “endogenous GABARAP (mouse embryonic fibroblasts) (from UniProt Q9DCD6 1-117)” as the substance, how does the binding [10] read?
Answer: The binding was “no binding”.

Question: And the binding [11]?
Answer: The binding was “binds”.

Question: For “PLEKHM1‐WT‐Flag (from UniProt Q9Y4G2 1-1056)”, which binding (GFP‐LC3C (human) [12]) is on record?
Answer: Its binding is “binds”.

Question: Which binding [7] does the source give for “6xHis-tagged GABARAP-L2 (from UniProt P60520 1-117)” here?
Answer: The binding was “binds”.

Question: What about the binding [8] of the same substance?
Answer: The binding was “binds”.

Question: Which binding [1] does the source give for “6xHis‐tagged GABARAP (from UniProt O95166 1-117)” here?
Answer: The binding was “no binding (tested: 1 μM)”.

Question: How did the binding (GFP‐GABARAP‐L2 (human)) turn out when “endogenous p62/SQSTM1 (HeLa) (from UniProt Q13501 1-440)” was run?
Answer: The binding was “binds”.

Question: And the binding (GFP‐LC3A (human))?
Answer: Its binding is “binds”.

Question: What about the binding (GFP‐LC3C (human) [13]) of the same substance?
Answer: The binding was “binds”.
